Results from the supplement of paper PMC11417369.
± gives the standard deviation of the averaged measurements. The list shows a part of the results.

Tested on: PfAP2-LT AP2 domain (GST-tagged)
Test: gcPBM binding intensity (ln(normalized median fluorescence intensity)); higher = stronger DNA binding
Outline: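 Binding of GST-tagged P. falciparum DNA-binding domains, expressed in E. coli and used at about 25 μg on average, was carried out for 1 h in 1× PBS containing 1% milk, 0.2 mg/ml BSA, 0.5% salmon testes DNA and 0.03% Triton X-100. The target was an Agilent 4 × 180k array of primer-extended double-stranded 36-bp intergenic genomic probes plus negative controls, read with Alexa488 anti-GST antibody at 488 nm. Binding intensity is the highest Masliner-normalised natural-log median intensity across replicate spots of either probe orientation.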

| Sequence | gcPBM binding intensity (ln) |
| --- | --- |
| TTATATAAATATAAGGTGCTGGGGTTTATTACATAT [GTGCAC_site9909] | 9.18 ± 0.5 |
| CACCAATTCATATGCACACACATCTGCATATTATAG [CACACA_site6925] | 9.39 ± 0.3 |
| ATATCGCACGTTTGAAGTACATAAAAACGATTAATA [XGTACX_site7684] | 8.87 ± 0.38 |
| CATATTATTTATATTTGTACACAGCGATATGAAATA [XGTACX_site7717] | 8.68 ± 0.35 |
| CTTACATAAAATATCACACACATAAAAAAACAATAT [CACACA_site1901] | 9.3 ± 0.42 |
| TATATATATATATATGTGCACATATATATGATATTA | 9.61 ± 0.28 |
| GTACATTATATATATACACACATACATAATAAAGAA [CACACA_site5528] | 9.24 ± 0.32 |
| ATATGCTATTAATTATGTACATATATATATATATAT [XGTACX_site4901] | 9.26 ± 0.33 |
| GGACTATACAGTTATACACACACATATATATATAAT [CACACA_site7991] | 9.6 ± 0.4 |
| ACTACGTGTCAAAAATATTAATTACAAATGAATAAA [GTGCAC_negctrl_site248] | 8.44 ± 0.43 |
| TATTAATATATAGTAGTGCAATAAAGATATACTGAA | 8.83 ± 0.51 |
| AACATACTCACGAACATACACACGGACATACATACG [CACACA_site603] | 9.51 ± 0.16 |
| ATGCATACACTTATATGTACACATTTACATATTATT [XGTACX_site2841] | 9.16 ± 0.48 |
| CGAAAGGAAATATAACGTACATAAGATTATATTCAC [XGTACX_site3868] | 8.88 ± 0.45 |
| AATAAATAAATATATTGTACATATATATATATATAT [XGTACX_site8627] | 9.38 ± 0.63 |
| ATGAACAAGGGGCACACACACATTATGACTAATTTA [CACACA_site3204] | 9.6 ± 0.45 |
| TATTAAAAGAAAAAAAAAAAAAAATTAATACATATA [XGTACX_negctrl_site582] | 8.32 ± 0.54 |
| ACATGTAAATTTACATGTACATGTAACACTTAATAT [XGTACX_site4575] | 8.98 ± 0.28 |
| AAAACAAACGGACACACACACATATATATATATATA [CACACA_site5924] | 10.2 ± 0.44 |
| TAATATTTTAATTGTGTGCACATTAATATTATAAAA | 8.84 ± 0.42 |
| TTTAGTGAGTTTGTTGTGCACTGAAAAAATTACAAT | 8.56 ± 0.35 |
| TATATTATTTTTTGTGGTACATGTATTTTTACCTAA [XGTACX_site4348] | 8.84 ± 0.42 |
| TACATATTTACTATCACACACACGATATATATAAAT [CACACA_site1242] | 9.35 ± 0.26 |

| Sequence | gcPBM binding intensity (ln) |
| --- | --- |
| ATACGAAAAAATAGACGTACTATGAAATAATAATTT [XGTACX_site8387] | 9.01 ± 0.45 |
| TACTTAAAAAAAAAAAAAATAAATATTATGTATTAT [CACACA_negctrl_site138] | 8.24 ± 0.59 |
| ATATTATACATTTATACACACATAAAAAGACAAAAA [CACACA_site3565] | 9.07 ± 0.42 |
| AAACAATTTGGGTGTACACATGATACGTTCGATGAG [CACACA_site5160] | 9.04 ± 0.42 |
| ATAACCTAATAATACACACACATGAATATAAATAAC [CACACA_site6584] | 9.52 ± 0.25 |
| ATATATATTTTATACGCATGTAATTATTATGTGGTC [TGCATGCA_site45] | 9.04 ± 0.39 |
| TATATTAAACAATATACACACATTAATGTATCCATA [CACACA_site5523] | 8.9 ± 0.45 |
| TTATATATATATATATGTACACATATATAACATGAT [XGTACX_site6643] | 9.19 ± 0.28 |
| TGTAATATTTTTCATGCATGCTCTTCTTTTACATAA [TGCATGCA_site144] | 9.11 ± 0.35 |
| ATAATTTATATTACTTGTACATATTTATATGAACGA [XGTACX_site3610] | 8.68 ± 0.48 |
| AAAATTAAAAATAACACACACATATTTATATTTATA [CACACA_site7329] | 9.16 ± 0.35 |
| TATTCTTTTATGAATACACACATATACGAAAATATT [CACACA_site6585] | 8.73 ± 0.43 |
| AAGGAGAAATATTGCACACGTGCAAAATGGTATGAG [CACACA_site259] | 9.25 ± 0.47 |
| CTTAATTTTTTTTAATGTACATACATATAAACCTTT [XGTACX_site2233] | 8.63 ± 0.52 |
| AGTTATATGTACTACACACGTACACAAAATAAGATA [CACACA_site3719] | 9.16 ± 0.42 |
| AGGTGTCATAGATGCACACAAAAGTAACACGCACCT [CACACA_site4418] | 9.28 ± 0.41 |
| AAAAGGTTATCAAAATGTACGAAATGTTACAAAAAT [XGTACX_site6215] | 8.79 ± 0.5 |
| AAATGTTAAAAAGAGAAAAACAATAAAAAACAATTA [CACACA_negctrl_site1044] | 8.61 ± 0.54 |
| TACTATTATTATTGCACACTTATTATCCCTCGGATA [CACACA_site162] | 9.03 ± 0.49 |
| TGATCATAGAAACACACACACAAAAAAAAAAAAAAA [CACACA_site4008] | 9.31 ± 0.52 |
| AATATATATTAATACACACACACATATATATATATA [CACACA_site3786] | 9.8 ± 0.13 |
| AGACGATAAATCATTCATTCATTTACCATCCAAAAA [CACACA_negctrl_site802] | 8.54 ± 0.42 |
| TTTTAATTAGTACAAACACACATATACAGACAAAAA [CACACA_site2563] | 8.96 ± 0.38 |

| Sequence | gcPBM binding intensity (ln) |
| --- | --- |
| TAATATAGAAAATGCATACACACTTTATATATATAT [CACACA_site911] | 8.93 ± 0.35 |
| CTTTTTAATGAATACACACACACACCGATATATATA [CACACA_site5296] | 9.88 ± 0.2 |
| GAATAATATGGACATACACACATATACATACCTATA [CACACA_site7075] | 9.27 ± 0.44 |
| AAATATTATTGACGATGTACTTCTATTCATAAGTAT [XGTACX_site3964] | 8.7 ± 0.35 |
| TAAAACTTATACAAATGTACAAATATATATATATAT [XGTACX_site4661] | 9.2 ± 0.22 |
| AAAATTTTTTTTGGCGCACACTAATAATAAAATATA [CACACA_site470] | 8.62 ± 0.46 |
| TATATATGTATGTATGTACACACAAAAAATGGAATA [CACACA_site9235] | 9.41 ± 0.46 |
| AAGAGAGAGAAATATGCACACATAAGGGAAATAAAT [CACACA_site8300] | 9.29 ± 0.56 |
| TTTTTTTAAAACAAAAAAAAAAAAAAAAAAAAAAAA [TGCATGCA_negctrl_site418] | 8.04 ± 0.24 |
| TTCTTTTTTATTTATACATGCAATAAAAAATTGATT [TGCATGCA_site730] | 8.48 ± 0.35 |
| AATAAACATTATTTTCGTATTCCAATTCTTTTTTTT [XGTACX_negctrl_site374] | 8.55 ± 0.52 |
| TTGATAAAATCACTGGTGCATGTAGATATATAATAT | 8.8 ± 0.35 |
| AAAAAAAAAAGAAAAAGTACATACATACATATATAT [XGTACX_site6405] | 8.78 ± 0.45 |
| TTATTATTAGAAAAAAGTACACATATAAAATGTTAC [XGTACX_site6426] | 8.46 ± 0.5 |
| GTAAAATTAAAAATAACACACAAAAAAAAAAAAAAA [CACACA_site800] | 8.8 ± 0.43 |
| GGATACATATGTAAAAGTACACATGAATATATACAT [XGTACX_site6469] | 9.14 ± 0.4 |
| AGCCACAATACGGAAACACACAAGTTATTTTATCAT [CACACA_site2724] | 9.16 ± 0.47 |
| AATGAAGACTTTTTTACACACTTCATATCTTATAGA [CACACA_site7046] | 8.87 ± 0.35 |
| TTTTAACGTAATTCAAATGAGCAGAATTTTTTAAAA [CACACA_negctrl_site1800] | 8.13 ± 0.35 |
| TTTTTATGAATTCTTTTGTTAATAATAATATGTTGT [TGCATGCA_negctrl_site198] | 8.56 ± 0.45 |
| AATATTTTTAATTAATGTACATATTTATTATATAAA [XGTACX_site5112] | 8.36 ± 0.4 |
| AAATTTTTTCCGATTTGTACTTATATTTCTTTATTA [XGTACX_site1762] | 8.82 ± 0.47 |
| ATCTTTCAATAATTCACACATATATATATATATATA [CACACA_site4598] | 9.36 ± 0.54 |

| Sequence | gcPBM binding intensity (ln) |
| --- | --- |
| CTATTACAAAGAAATTGTACATATATATATAAAAAC [XGTACX_site8800] | 8.82 ± 0.37 |
| ATATATATATATGTACACATATATGTGTTTGTTTTT [GTGCAC_negctrl_site5] | 9.76 ± 0.29 |
| ATAATATATATATTTTGTACACATGAAAAGGAGGAT [XGTACX_site5034] | 9.07 ± 0.36 |
| TAAATAAATTTATGTACACACACAAATAAATACATA [CACACA_site5107] | 9.26 ± 0.38 |
| AAAAAAAAGAAAAACACACACATATTTATTTATAAC [CACACA_site6600] | 9.25 ± 0.47 |
| TATATATATATATATAGTACACATATCACATAAATG [XGTACX_site6379] | 9.47 ± 0.37 |
| ATAATATATGTATGTATGCACTTTTATTATTTTTTT | 8.93 ± 0.52 |
| TATATATTAAATTATAGTACACATTATATATAATTA [XGTACX_site4841] | 8.43 ± 0.35 |
| TAAATCCGCACGCACACACACATATTAATAAAAAAA [CACACA_site7800] | 9.61 ± 0.38 |
| TTATTTTTATTATAAATTATAAAATATAAATAAATA [GTGCAC_negctrl_site616] | 7.89 ± 0.52 |
| GAAACTATGTAATGCACACCAAAATAAAATTATTAA [CACACA_site1904] | 8.96 ± 0.46 |
| TCTTCTTAACCAACTATGAAAAGGAAAAATATAACA [GTGCAC_negctrl_site565] | 8.31 ± 0.45 |
| CATGAATTTTTTTAATGTACATTCACATCATAAAAA [XGTACX_site7475] | 8.47 ± 0.39 |
| ATATATTATATATATAGTACGTATATAAATTTAATT [XGTACX_site5041] | 8.73 ± 0.4 |
| ATTATAAAAAAGAAACGTACATATTTATTGTTTTTT [XGTACX_site2161] | 8.61 ± 0.45 |
| AATAATTTAATACATACACACGTATATCTTTTTTTT [CACACA_site8632] | 8.89 ± 0.4 |
| TATATATATAACATATGTACATATATTTATAAATAC [XGTACX_site5484] | 8.68 ± 0.4 |
| TATATAAATATACACCCACACACATATATATATATA [CACACA_site9247] | 9.61 ± 0.28 |
| TATATTCCACTCATTGATTTTCTCTTCTCACAAAAA [CACACA_negctrl_site1016] | 8.47 ± 0.46 |
| ATCGTAGTATAATATGAACACACACCCACCCACAAA [CACACA_site8616] | 9.71 ± 0.29 |
